The other results are listed elsewhere or left out.
system: PF3D7_0420300 AP2 domain 1 (GST-tagged); test: gcPBM binding intensity (ln(normalized median fluorescence intensity)); higher = stronger DNA binding
Outline: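 The binding buffer was 1× PBS containing 1% milk, 0.2 mg/ml BSA, 0.5% salmon testes DNA and 0.03% Triton X-100. In it, GST-tagged P. falciparum DNA-binding domains expressed in E. coli were applied for 1 h to an Agilent 4 × 180k array of primer-extended double-stranded 36-bp intergenic genomic probes plus negative controls. Binding intensity, read with Alexa488 anti-GST antibody and a 488 nm scan, is the highest Masliner-normalised natural-log median intensity across replicate spots of either probe orientation.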

| Sequence | gcPBM binding intensity (ln) |
| --- | --- |
| TAGTTAACAAATAATGCACACAAATGGATAAAATTA [CACACA_site9240] | 9.59 |
| ATTCAAATTGTAGAAACACACAAAAACTTAACATAT [CACACA_site2617] | 9.58 |
| CATATGATATGTTATACACACACGTATATATGAATT [CACACA_site3446] | 9.62 |
| AAGGGAAAATTAAGGTTGCACTAAAAATATATCTTT [GTGCAC_site9608] | 9.12 |
| ATGAACATACAATATACACACATATATATTTATATT [CACACA_site4609] | 9.71 |
| AAGAGAAATTATAACATGTGAAATGTATTATATATA [TGCATGCA_negctrl_site254] | 9.25 |
| ATTTATATATAATATACACACATATAATCCACATAT [CACACA_site699] | 9.69 |
| TAAGTATAATATTGATGTACATATAATAACTTGTAT [XGTACX_site417] | 9.26 |
| AAAAATAAAAAAATGACACACATATATATATATATA [CACACA_site2307] | 9.6 |
| TATCTCTTATTTTATTGTACTTAACTATGCTATAAT [XGTACX_site4904] | 9.4 |
| AAAAAAAATTATATATGTACTTATTAATCCTTATAT [XGTACX_site1389] | 9.15 |
| TATTTCAAAAAAAAAAAAAATAAAAAACAACAACAA [CACACA_negctrl_site893] | 9.43 |
| ATTTATATATCGCCCACACACATGTGATTATTTATA [CACACA_site6905] | 9.85 |
| TACTACTATCTATATTGTACAAAAGGTGCCTACAAA [XGTACX_site4267] | 9.15 |
| TCTATTCAAAATAAAAGTACTAGCATGTGAATTGTT [XGTACX_site5530] | 9.13 |
| TACAAGTTTTTAAAGTGTACCAAAAAAAAAGAATAA [XGTACX_site979] | 9.02 |
| TTCATTTATTTACTTACACACTTTATATATGTGGTT [CACACA_site4901] | 9.68 |
| ATATATAAAATATACACACATACTGTTCATTTAAAG [CACACA_site4169] | 9.5 |
| AATTATATTCTATTCACACATATTCCAACCTCTTTT [CACACA_site4670] | 9.59 |
| TGAAAGAACCTGATTACACACATAAATTATATATAT [CACACA_site26] | 9.54 |
| TTTGATGGTACACGTACACACCTTGCAAATATTTTT [CACACA_site4645] | 9.46 |
| AAAAGATAATTATGCACACACACACCCAGACACAAC [CACACA_site5428] | 10.1 |

| Sequence | gcPBM binding intensity (ln) |
| --- | --- |
| TGTATGTTGTAAAATTGTACATATATATTATATTTA [XGTACX_site4883] | 9.28 |
| ATGAATATAATAAAGAAACACACGTATACATAATGA [CACACA_site1355] | 9.75 |
| AGTTCTTCGTACCAAAAAACGGCACGCATATGTATA [TGCATGCA_negctrl_site469] | 9 |
| TGTATTCATACATGCACACGTACATATTTAAATATA [CACACA_site3926] | 9.3 |
| AAAAATGAAAGGTGTACACATACAAACATAGAAAGA [CACACA_site5020] | 9.84 |
| AAAATTTATATAGGCACACAAATAAATTAATACATA [CACACA_site1418] | 9.39 |
| TTTTTTTTTTTTTGGTGTACTTTTTTTAGAACGCAA [XGTACX_site4207] | 8.86 |
| TTTTTTCTTTCTTTCAAACACACATTAATTTTATTC [CACACA_site2733] | 9.41 |
| ATTCTACACCCACATACACACATATATATATATATA [CACACA_site3426] | 9.84 |
| TGTTCAAATTTATTCGATCTTTATATTTAATAAAAC [CACACA_negctrl_site781] | 9.03 |
| ATATTAGAAATATGAATAGAAAGAATATATAAGTAT [CACACA_negctrl_site682] | 9.38 |
| AGATACTTTCCTCAAACACACAAAACTATACAACAA [CACACA_site1474] | 9.45 |
| ATTCAGTTCTATAATACACACATATATTGACATTAT [CACACA_site7309] | 9.56 |
| ATATTCTTCTAAAGGCGTACATCTACATTTATGAAA [XGTACX_site2145] | 9.07 |
| GTTAGCTCGTTCGGAGCACACACATATATATATATA [CACACA_site8595] | 9.45 |
| ATCCTACTATGTTATACACACAATTACTTTTTTCTC [CACACA_site3712] | 9.86 |
| ATATGTAAAACTTCAAAAAAATATATTTTATGACGA [GTGCAC_negctrl_site324] | 9.15 |
| TTACAACAGAATGGTATTTTTTTATTTTAAAGAAAA [TGCATGCA_negctrl_site230] | 8.72 |
| AATATTTATGTGAAGACACACAACTGTTTATTATAT [CACACA_site3447] | 9.48 |
| TTATATGCTCAATGTTGTACATGTAGATATATATAT [XGTACX_site8211] | 9.13 |
| ATATATATATATAGTGCACACATATAAAATATATAT [CACACA_site8884] | 9.38 |
| ATCTGTCGACAGGACAGTACACAGTAGCCAGTAACT [XGTACX_site2001] | 9.23 |

| Sequence | gcPBM binding intensity (ln) |
| --- | --- |
| AAGTATGTCGACTGTTGTACTTTTATCATTTATTAT [XGTACX_site1129] | 9.45 |
| ATATACTATGATAATACATGCGATAATACATTTTTA [TGCATGCA_site387] | 9.23 |
| GTATGGCGTATCATATGTACTAAAAAAAAATAAAAA [XGTACX_site5101] | 8.9 |
| TATTTATCATCATATTGTACATTATATATATAAAAT [XGTACX_site6675] | 9.15 |
| AATAAAAAAATGTCACGTACTTATTTTATTAAACCT [XGTACX_site3031] | 9.15 |
| ATGGAAATATATACATGTACATAAATATATATATAT [XGTACX_site8391] | 9.33 |
| ATGTTTTGCATATATTATATATTTATTTATTTTTTT [CACACA_negctrl_site729] | 9.35 |
| AGTGGACTTTTTTTTTTTTTTTTTTTTTTTTTATTA [CACACA_negctrl_site547] | 9.2 |
| AGTAGTCTGGAGAAGAGTACATAGTATCTGGTAACC [XGTACX_site2043] | 9.2 |
| AGAGAGATGACAAAAAGATGAATAACGTTAAGGGAT [XGTACX_negctrl_site120] | 9.91 |
| TATTTATTGTGATACTTATATTATTTTATGATTAAA [CACACA_negctrl_site901] | 9.07 |
| ATAAAATATAGATGCACACACATATAGATTTCATAC [CACACA_site7636] | 9.81 |
| TGTATATTTTTTATTACACACTTTTTACTTTTTAGA [CACACA_site3069] | 9.38 |
| TTTTTTAATTGTGATACGTATATTATTTAATGATAA [GTGCAC_negctrl_site704] | 9.13 |
| AGTATATACACGTGCGTGCACAGATATTCTTTTTTT [GTGCAC_site9398] | 9.3 |
| GATATAATTATATTATGGTGTTTTTGATAGATATTT [GTGCAC_negctrl_site313] | 9.37 |
| ATCAAACCATAAAAGAGTACAAAAGGATGATATTTT [XGTACX_site8883] | 9.43 |
| TATTTTAAAGAGAAAACATGCATTATATAGAACATT [TGCATGCA_site328] | 9.21 |
| ATATAAATAAAATATACACACATACTGTTCATTTAA [CACACA_site7880] | 9.48 |
| TTTTTTTTTTATTTTGCACACTTCTAATTTAGTTCT [CACACA_site5828] | 9.45 |
| AAGTTAATGAAAAAATGTACCCAGAGTATTTTAAAA [XGTACX_site2997] | 9.28 |
| AAAAAAAAAAAAGATTGTACAGAATACTTTTAAAAT [XGTACX_site3576] | 8.99 |

| Sequence | gcPBM binding intensity (ln) |
| --- | --- |
| TTGTTTTTCTTTGAATGTACTTAATGATTTCCAATT [XGTACX_site2499] | 9.31 |
| TCCATATATTTTAAAAGTACACATAAAAATTATTTA [XGTACX_site8127] | 8.93 |
| AATGGAAAAATAGGCACACACACATATATACATATA [CACACA_site1298] | 10.2 |
| AAAATACTAGATAGGGGAAAAAAAAAAAAAAAAAAA [CACACA_negctrl_site1732] | 8.44 |
| TATTGTAATATTAGCACACATTACCTCACTACAAAT [CACACA_site5419] | 9.42 |
| AACATGAAAATATATGCATTTGTATATATATATATA [TGCATGCA_negctrl_site16] | 9.11 |
| AATAAAACCCCGAAATCACACATTAAATGAAAAATA [CACACA_site4732] | 9.61 |
| AAAGCACCCATGCACACACACAAAGGAAAAGAAAAA [CACACA_site6249] | 9.91 |
| ATAAATGATAAAATTGCATGTGAATGTGAAAATATT [TGCATGCA_site251] | 9.49 |
| TGGGAAAATAATATTTATTTTATATATAAATATATA [CACACA_negctrl_site121] | 8.79 |
| AATTTAAAAGAAAAAGAAAAATAATAAACAGAAGCA [XGTACX_negctrl_site503] | 9.68 |
| ATAAAAAATAAATATATACATACATACATACATATA [XGTACX_negctrl_site507] | 9.43 |
| ATAAAACAAAAATATAAACACACATACATTGGTTTT [CACACA_site8809] | 9.69 |
| TTTTCAAAAATATACACACACATAAATATAGGTATA [CACACA_site6506] | 9.79 |
| TTGATTTACTATAGATGTACGTAAAATATAAATAAA [XGTACX_site8256] | 8.95 |
| GTTTCAAAATTAAACACACACAAAAAAAAAAAAAAA [CACACA_site2680] | 9.22 |
| TATTATATCTTTATTATTCATCTAAAATTTGTATTT [TGCATGCA_negctrl_site233] | 9.19 |
| ACATTATATCTAAGTACACACATTAATTTTTTTTTT [CACACA_site7850] | 9.5 |
| CTATAACCTCTGTTCACACATATATCATAATTTACA [CACACA_site5446] | 9.54 |
| TTTATTTTGATTTAATGTACAAATAGTAAAACAAAA [XGTACX_site4789] | 8.97 |
| TATTTAAAAGCATATACACACAACTGGAATGAAAAG [CACACA_site6128] | 9.79 |

Reference: the supplement of paper PMC11417369
